Measured values from PubChem BioAssay AID1159614 (National Center for Advancing Translational Sciences (NCATS), 2016).
The campaign covered roughly 45,000 compounds. About 65 (0.1%) were called active. The call rests on the fitted dose curve; in most records, active means well fitted activation curve with a large enough effect; inconclusive means small, poorly fitted or top-dose-only effect; inactive means no such curve, though single readings can be large or run the other way. This is one part of the list.

What follows are compounds tested against Galactocerebrosidase (Homo sapiens) (UniProt P54803) (assay: A Novel Cell-Based Assay to Identify Small Molecules for B -Galactocerebrosidase). Details: 145M-Twi-hGALC-G270D cells (Twitcher mouse brain line with human GALC G270D), HMU-beta-Gal fluorescence, 48 h; series mostly up to 57.5 µM; activation: at the top concentration.
Chain of UniProt P54803 (P54803 whole entry, looked up): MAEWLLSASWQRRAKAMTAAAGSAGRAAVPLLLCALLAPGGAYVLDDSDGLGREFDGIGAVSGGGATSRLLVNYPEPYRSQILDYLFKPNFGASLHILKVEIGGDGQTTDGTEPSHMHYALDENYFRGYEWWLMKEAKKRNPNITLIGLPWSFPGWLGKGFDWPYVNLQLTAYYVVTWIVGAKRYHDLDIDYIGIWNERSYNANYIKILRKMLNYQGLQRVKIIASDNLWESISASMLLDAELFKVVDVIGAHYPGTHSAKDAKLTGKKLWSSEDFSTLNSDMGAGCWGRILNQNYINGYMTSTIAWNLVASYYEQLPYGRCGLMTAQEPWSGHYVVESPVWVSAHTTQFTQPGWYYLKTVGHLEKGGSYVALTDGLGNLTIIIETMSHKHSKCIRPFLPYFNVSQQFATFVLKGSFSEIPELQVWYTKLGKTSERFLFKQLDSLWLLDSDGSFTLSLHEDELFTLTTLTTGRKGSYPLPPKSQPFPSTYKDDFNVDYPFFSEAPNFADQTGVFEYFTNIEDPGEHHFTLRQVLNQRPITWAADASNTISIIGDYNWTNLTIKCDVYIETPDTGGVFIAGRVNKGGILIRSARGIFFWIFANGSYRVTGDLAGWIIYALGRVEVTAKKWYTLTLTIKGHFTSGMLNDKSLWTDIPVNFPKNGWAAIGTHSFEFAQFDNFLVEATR
In short: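 Fluorescence readout: HMU-β-gal cleavage by mutant GALC (0.1 mM final, citrate/phosphate pH 5.2 with 1 mg/mL taurocholate), stopped with carbonate/bicarbonate plus Triton X-100. Cells: murine Twitcher 145M-Twi expressing human G270D GALC; qHTS for activators.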
Further: 0% is about no effect; nearly all actives have a fitted effect of over 65% in size.

activation, inactive:
Cc1ccc(C)c(Cn2cnc3c(cnn3-c3ccc(F)cc3)c2=O)c1 -10.3%
CCN(Cc1ccccc1)S(=O)(=O)c1ccc2c(c1)CCCN2C(C)=O -11.5%
CCc1ccc(NC(=O)N2c3ccccc3Sc3ccccc32)cc1 -8.95%
Cc1ccc(-c2c(C(=O)NCc3ccc(F)cc3)oc(=O)c3ccccc23)cc1 -9.02%
Cc1cc(-c2ccccc2)n2nc(-c3cccc(Br)c3)cc2n1 1.15%
CC1CCN(C(=O)CN2c3ccc(C(C)C)cc3-c3ccccc3S2(=O)=O)CC1 -13.4%
Cn1nc(C(=O)NCc2ccc(F)cc2)c2c1-c1ccccc1SC2 0.39%
COc1ccc(/C(C)=C/C(=O)O)c(OC)c1 -12.4%
Cc1ccc2cccc(NC(=O)c3ccc(-c4cccc(Cl)c4Cl)o3)c2n1 -5.52%
CSCCC(NS(=O)(=O)c1ccc2c(c1)oc(=O)n2C)C(=O)NCc1ccccc1 (configuration not stated) -12.2%
COc1ccc(CCCc2nnc(SCC(=O)Nc3ccc(F)cc3)o2)cc1C -14.5%
CC(C)CN(CCNC(=O)c1cn(C)c2ccc(S(=O)(=O)N3CCOCC3)cc2c1=O)CC(C)C 8.98%
Cc1ccccc1NC(=O)Cn1c(=O)n(Cc2ccc3c(c2)OCO3)c(=O)c2ccc(C(=O)NC3CCCCC3)cc21 8.48%
CC(=O)c1cccc(NC(=O)c2oc(=O)c3ccccc3c2-c2ccccc2)c1 -4.39%
COc1ccc(N2CCN(C(=O)CCC(=O)NNc3nc4ccccc4c4nc(C)nn34)CC2)cc1 -6.48%
Cc1ccc(C)c(N2CCN(C(=O)c3ccc(Nc4nc5ccccc5n5nnnc45)cc3)CC2)c1 -16.8%
N=c1n(CCN2CCCCC2)c2ccccc2n1CC(O)COc1ccccc1 (configuration not stated) -4.84%
CCC(=O)N1CCc2cc(S(=O)(=O)CCC(=O)N3CCN(c4cccc(Cl)c4)CC3)ccc21 -11.4%
CSc1ccc(C(=O)Nc2ccc(-c3nc4ccccc4s3)c(O)c2)cc1 14.9%
Cc1cc(C)cc(NC(=O)c2oc3ccc4c(c3c2C)C(=O)CC(C)(C)O4)c1 -3%
COc1ccc2c(c1)c1c(c(=O)n(Cc3ccccc3)c(=O)n1CC(=O)NCc1ccc(C)cc1)n2C -7.22%
CCc1ccc(NC(=O)c2ccc3nc(C(C)C)oc3c2)cc1 -11.1%
CSc1ccc(-c2nc3c(C)cccn3c2Nc2ccc3c(c2)OCCO3)cc1 -15.8%
COc1cc(OC)c(NC(=O)Cn2c(=O)cc(C)c3c(C)nn(-c4ccc(C)cc4)c32)cc1Cl 1.23%
Cc1ccc(OCc2nnc(SCC(=O)Nc3ccccc3C(C)C)o2)cc1 -15%
CCC1CCc2nc3sc(C(=O)Nc4ccc(C)cc4C)c(N)c3cc2C1 (configuration not stated) -16.2%
COC(=O)Cn1ccc2cc(S(=O)(=O)N3CCCCCC3)ccc21 -12.3%
